A short description of assay [1]: BSK_3C_Proliferation: Cell Proliferation Assessment in the BioMAP Diversity Plus: 3C Assay (AID 2283006; active = hit-call score of the fitted dose curve at least 0.9, where 1 is the maximum; inactive = score below 0.9;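 also: potency may reflect either rise or fall in cell number versus DMSO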). As to conditions: primary human endothelial cells (HUVEC). The procedure, abridged: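 Proliferation as total protein: sulforhodamine B (0.1%) stain of TCA-fixed subconfluent human umbilical vein endothelial cells, absorbance 560 nm, 48 h after dosing. Activity fitted in both directions against DMSO baseline.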

Assay [2] has as its target Peroxisome proliferator-activated receptor gamma (Homo sapiens) (UniProt P37231). The experiment in a line: ATG_PPARg_TRANS: Attagene TRANS-FACTORIAL HepG2 Assay for human Peroxisome Proliferator-activated Receptor-gamma (PPARg) (AID 2283007). Summed up:
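Chimeric NR-Gal4 transactivation is measured in transiently transfected HepG2 cells by reporter mRNA induction at 24 h. Detection uses RT-PCR with fluorescent labelling and capillary electrophoresis; DMSO defines baseline.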

Read-out in assay [3]: Monocyte Chemoattractant Protein-1 (MCP1), CCL2 (gene 6347)
The experiment in a line: BSK_3C_MCP1: BioMAP Diversity Plus: 3C Assay for Monocyte Chemoattractant Protein-1 (MCP1) Biomarker Activity (AID 2283017; active = hit-call score of the fitted dose curve at least 0.9, where 1 is the maximum; inactive = score below 0.9). As to conditions: actives raise or lower the signal; primary human endothelial cells (HUVEC). The procedure, abridged:
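HUVEC, 3C system; 24 h chemical exposure; MCP-1 by ELISA; bidirectional curve fit vs DMSO baseline.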

Read-out in assay [4]: Human Leukocyte Antigen - DR isotype (HLADR), HLA-DRA (gene 3122)
The experiment in a line: BSK_CASM3C_HLADR: BioMAP Diversity Plus: CASM3C Assay for Human Leukocyte Antigen - DR isotype (HLADR) Biomarker Activity (AID 2283043; active = hit-call score of the fitted dose curve at least 0.9, where 1 is the maximum; inactive = score below 0.9;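 also: cell-surface HLA-DR protein level quantified by ELISA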). As to conditions: actives raise or lower the signal; primary human coronary artery smooth muscle cells.

Read-out in assay [5]: Tissue Factor, F3 (gene 2152)
The experiment in a line: BSK_LPS_TissueFactor: BioMAP Diversity Plus: LPS Assay for Tissue Factor Biomarker Activity (AID 2283084; active = hit-call score of the fitted dose curve at least 0.9, where 1 is the maximum; inactive = score below 0.9). As to conditions: actives raise or lower the signal; primary human HUVEC with PBMC. Summed up:
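HUVEC/PBMC co-culture, LPS-activated; CD142 ELISA read 24 h post-dose; bidirectional curve fit vs DMSO negative control.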

The target in assay [6] is human CYP1A1, CYP1A1 (gene 1543) (UniProt P04798). The experiment in a line: NVS_ADME_hCYP1A1: NovaScreen (NVS) CYP450-related Enzyme Activity (ADME) Assay for human CYP1A1 (AID 2283100). Summed up: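 Read-out: fluorescence intensity from enzymatic turnover of substrate by recombinant CYP1A1, loss of signal indicating inhibition. Incubation 1 h post-dose. Primary single-point 10 uM in duplicate; actives rerun singly with top concentration 20 uM.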
Sequence of UniProt P04798 (P04798 whole entry, looked up): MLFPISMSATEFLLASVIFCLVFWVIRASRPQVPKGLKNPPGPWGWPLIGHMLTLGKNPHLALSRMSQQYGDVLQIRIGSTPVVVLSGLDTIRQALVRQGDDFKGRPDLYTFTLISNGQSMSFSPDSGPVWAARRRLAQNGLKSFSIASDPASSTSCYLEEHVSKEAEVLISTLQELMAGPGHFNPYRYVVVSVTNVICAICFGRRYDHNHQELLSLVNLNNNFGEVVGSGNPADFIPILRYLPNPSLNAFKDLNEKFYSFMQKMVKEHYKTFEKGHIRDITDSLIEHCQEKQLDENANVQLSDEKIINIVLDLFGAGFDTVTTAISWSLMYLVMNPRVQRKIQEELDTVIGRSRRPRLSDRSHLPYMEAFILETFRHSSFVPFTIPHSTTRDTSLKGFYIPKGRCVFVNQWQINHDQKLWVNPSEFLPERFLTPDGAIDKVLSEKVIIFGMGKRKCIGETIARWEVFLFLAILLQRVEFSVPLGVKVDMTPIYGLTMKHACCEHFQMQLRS

Assay [7] concerns the target bovine Estrogen Receptor (ER), ESR1 (gene 407238) (UniProt P49884). The experiment in a line: NVS_NR_bER: NovaScreen (NVS) Nuclear Receptor Binding Assay for bovine Estrogen Receptor (ER) (AID 2283345).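 Also: actives lower the bound radioligand count which means they displace the ER ligand.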 Summed up: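 Displacement of a radioligand from estrogen receptor in bovine uterine membrane preparations; scintillation signal taken at 18 hours, DMSO as baseline. Single-concentration duplicates (25 uM) preceded concentration-response follow-up of actives.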
Sequence of UniProt P49884 (P49884 whole entry, looked up): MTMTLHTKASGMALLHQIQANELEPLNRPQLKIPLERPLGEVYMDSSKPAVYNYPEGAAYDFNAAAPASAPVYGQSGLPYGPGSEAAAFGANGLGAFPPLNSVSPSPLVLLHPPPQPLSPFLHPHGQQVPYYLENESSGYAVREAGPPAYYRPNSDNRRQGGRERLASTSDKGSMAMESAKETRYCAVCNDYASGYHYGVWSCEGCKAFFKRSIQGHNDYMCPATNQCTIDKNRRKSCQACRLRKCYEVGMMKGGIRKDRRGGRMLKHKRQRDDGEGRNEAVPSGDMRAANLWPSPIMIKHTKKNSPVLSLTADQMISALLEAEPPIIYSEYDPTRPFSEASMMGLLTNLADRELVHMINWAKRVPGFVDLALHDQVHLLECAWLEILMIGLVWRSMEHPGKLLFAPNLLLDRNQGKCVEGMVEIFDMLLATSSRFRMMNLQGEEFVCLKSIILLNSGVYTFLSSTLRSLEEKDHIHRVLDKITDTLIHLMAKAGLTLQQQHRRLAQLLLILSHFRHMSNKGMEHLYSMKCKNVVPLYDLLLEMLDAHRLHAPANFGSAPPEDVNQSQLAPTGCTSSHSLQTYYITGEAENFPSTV

The target in assay [8] is chimpanzee Androgen Receptor (AR), AR (gene 747460) (UniProt O97775). The experiment in a line: NVS_NR_cAR: NovaScreen (NVS) Nuclear Receptor Binding Assay for chimpanzee Androgen Receptor (AR) (AID 2283346).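 Also: radioligand displacement from AR measured by scintillation counting in a cell-free assay.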 The procedure, abridged:
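Cell-free radioligand displacement using receptor protein extracted from Sf9/Sf21 cells; bound radioligand measured by scintillation counting 72 hours after chemical dosing. Loss of signal versus DMSO baseline indicates binding; primary screen single-concentration in duplicate at 25 uM, actives followed in concentration series.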

For assay [9], the target named is Androgen Receptor/SRC-1 Co-activator, AR (gene 367) (UniProt P10275). The experiment in a line: OT_AR_ARSRC1_0480: Odyssey Thera (OT) 8-hour HEK293T Protein-Complementation Assay for Androgen Receptor/SRC-1 Co-activator (AID 2283354).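 Also: hits raise the complementation signal above DMSO so AC50 marks enhancers.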 Summed up:
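After 8 h dosing, stably expressing HEK293T cells with split-Venus AR/SRC-1 fusions were imaged (488, 635nm). The 488nm N/C ratio per image gave the endpoint, analysed in the positive direction against DMSO.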

A short description of assay [10]: Tanguay_ZF_120hpf_PE_legacy: (Legacy) Oregon State University Tanguay Lab 120 Hour Post-fertilization zebrafish Assay for Pericardial Edema (AID 2283640).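 Also: potency for increased incidence of pericardial edema versus DMSO baseline.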
Assay [11] has as its target human Thyroid hormone Receptor beta (TRb), THRB (gene 7068) (UniProt P10828). The experiment in a line: ATG_hTRb_XSP1: Attagene TRANS-FACTORIAL Multi-Species (XSP1) HepG2 Assay for human Thyroid hormone Receptor beta (TRb) (AID 2283808). Summed up:
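Readout is reporter mRNA induction measured by RT-PCR, fluorescent labelling and capillary electrophoresis, fitted upward relative to DMSO. Transiently transfected human HepG2 cells expressing NR-Gal4 chimeras were dosed for 24 h, medium containing 3 nM 6-alpha-fluorotestosterone.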

Assay [12] in a line: CCTE_Shafer_MEA_acute_burst_duration_mean: CCTE's Neural Acute Assay for Mean Burst Duration, Shafer Lab (AID 2284014; active = hit-call score of the fitted dose curve at least 0.9, where 1 is the maximum; inactive = score below 0.9;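 also: hits are decreases in mean burst duration relative to DMSO controls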). Summed up:
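Acute exposure of mature rat cortical networks (DIV 13 or 15) grown on microelectrode arrays to 0.03-40 uM compound. Mean burst duration compared with the 40-min pre-dose baseline over a 40-min post-dose recording at 37 C.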

Assay [13] in a line: CCTE_Shafer_MEA_dev_interburst_interval_mean: CCTE's Neural Network Formation Assay for Mean Interburst Interval, Shafer Lab (AID 2284046; active = hit-call score of the fitted dose curve at least 0.9, where 1 is the maximum; inactive = score below 0.9;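 also: curve fitted for decrease in interburst interval relative to DMSO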). Summed up: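 Primary rat cortical neurons on PEI-coated 48-well MEA plates (laminin added with cells at plating) (16 electrodes/well), exposed from plating day 0 with renewal at DIV 5 and 9. Mean inter-burst interval averaged over bursting electrodes, AUC across days 5, 7, 9, 12; DMSO baseline.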

A short description of assay [14]: CCTE_Shafer_MEA_dev_spike_duration_mean: CCTE's Neural Network Formation Assay for Mean Spike Duration, Shafer Lab (AID 2284051; active = hit-call score of the fitted dose curve at least 0.9, where 1 is the maximum; inactive = score below 0.9). The procedure, abridged: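 Spontaneous activity was recorded on days 5, 7, 9 and 12 from rat cortical cultures grown on microelectrode arrays and dosed continuously from day 0, with media and compound renewed after the DIV 5 and 9 recordings. Network-spike duration was collapsed by area under the curve.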

Assay [15] can be described thus: CCTE_Shafer_MEA_dev_per_network_spike_spike_number_mean: CCTE's Neural Network Formation Assay for Mean Number of Spikes in a Network Spike, Shafer Lab (AID 2284053; active = hit-call score of the fitted dose curve at least 0.9, where 1 is the maximum; inactive = score below 0.9). Summed up: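 Mean spike count within each network spike, taken in a 0.05 s window at its peak, was recorded on days 5, 7, 9 and 12 and integrated as trapezoidal area under the curve. Rat cortical cultures on MEA plates received continuous compound from day 0, refreshed at medium changes on DIV 5 and 9.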

The nature of assay [16]: CCTE_Mundy_HCI_hNP1_Casp3_7: CCTE's Caspase-Glo 3/7 Assay in human neuroprogenitor cells for Apoptosis, Mundy Lab (AID 2284240; active = hit-call score of the fitted dose curve at least 0.9, where 1 is the maximum; inactive = score below 0.9). The procedure, abridged:
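Neuroepithelial-lineage stem cells from WA09 embryonic cells were treated with chemicals after 40–44 h of culture. Twenty-four hours later, caspase-3/7 activation was detected luminescently after a 30 min room-temperature reagent step, with DMSO as baseline.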

Assay [17] concerns the target human Peroxisome Proliferator-activated Receptor delta (PPARd), PPARD (gene 5467) (UniProt Q03181). The experiment in a line: ATG_PPARd_TRANS: Attagene TRANS-FACTORIAL HepG2 Assay for human Peroxisome Proliferator-activated Receptor delta (PPARd) (AID 2283002). Summed up: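 Measured quantity: GAL4-UAS reporter transcript induction in HepG2 after 24 h chemical dosing, with NR-Gal4 chimeras supplied by transient transfection. Detection by RT-PCR and capillary electrophoresis; upward fit against DMSO.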
Sequence of UniProt Q03181 (Q03181 whole entry, looked up, the tested form may be a part): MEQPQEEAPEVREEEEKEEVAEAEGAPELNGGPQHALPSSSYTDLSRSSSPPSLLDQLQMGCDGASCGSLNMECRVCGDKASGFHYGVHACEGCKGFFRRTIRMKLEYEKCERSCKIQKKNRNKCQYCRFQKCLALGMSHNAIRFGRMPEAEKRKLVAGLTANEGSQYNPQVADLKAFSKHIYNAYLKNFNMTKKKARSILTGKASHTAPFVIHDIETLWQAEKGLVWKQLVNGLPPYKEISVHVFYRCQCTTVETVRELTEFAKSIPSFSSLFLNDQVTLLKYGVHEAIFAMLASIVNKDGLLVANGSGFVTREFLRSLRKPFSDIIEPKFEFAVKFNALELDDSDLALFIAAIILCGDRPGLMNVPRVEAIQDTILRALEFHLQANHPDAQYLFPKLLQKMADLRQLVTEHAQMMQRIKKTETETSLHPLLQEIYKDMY

Assay [18] addresses human Thyroid Receptor alpha (THRa1), THRA (gene 7067) (UniProt P10827). The experiment in a line: ATG_THRa1_TRANS: Attagene TRANS-FACTORIAL HepG2 Assay for human Thyroid Receptor alpha (THRa1) (AID 2283014). Summed up: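 Transient HepG2 transfection, NR-Gal4 chimera driving GAL4-UAS reporters; 24 h compound exposure; total RNA, oligo(dT) RT, PCR, fluorescent primer extension, capillary electrophoresis. Upward direction vs DMSO control.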
Sequence of UniProt P10827 (P10827 whole entry, looked up, the tested form may be a part): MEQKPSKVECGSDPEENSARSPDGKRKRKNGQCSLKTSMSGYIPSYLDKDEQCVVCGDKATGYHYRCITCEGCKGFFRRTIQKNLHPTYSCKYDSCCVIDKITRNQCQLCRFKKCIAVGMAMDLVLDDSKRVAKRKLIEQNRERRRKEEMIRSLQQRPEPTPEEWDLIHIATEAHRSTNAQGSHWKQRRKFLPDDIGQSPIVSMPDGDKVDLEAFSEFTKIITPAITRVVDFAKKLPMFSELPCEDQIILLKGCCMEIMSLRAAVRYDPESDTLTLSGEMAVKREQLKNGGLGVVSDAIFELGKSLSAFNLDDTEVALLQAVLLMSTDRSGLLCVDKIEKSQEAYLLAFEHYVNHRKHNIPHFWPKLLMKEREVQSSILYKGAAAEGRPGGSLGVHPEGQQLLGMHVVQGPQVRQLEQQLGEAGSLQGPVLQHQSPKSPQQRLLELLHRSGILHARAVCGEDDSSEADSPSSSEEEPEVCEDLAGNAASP

This note sets out measurements from PubChem BioAssay (EPA / NIEHS).

A word on the AC50: it is the concentration giving half of the maximal activity seen.

For some of these results: This list holds what a sample rich in hits left over. Results filed as inconclusive are left out. More than one record can exist for a structure, and the calls need not agree. The list shows a part of the results, in another mix than the full data. Activity calls are given as the source filed them. The calls were made as follows, unless noted: active = hit-call score of the fitted dose curve at least 0.9, where 1 is the maximum; inconclusive = response in the unintended direction; inactive = score below 0.9.

Sequence of UniProt P37231 (P37231 whole entry, looked up, the tested form may be a part): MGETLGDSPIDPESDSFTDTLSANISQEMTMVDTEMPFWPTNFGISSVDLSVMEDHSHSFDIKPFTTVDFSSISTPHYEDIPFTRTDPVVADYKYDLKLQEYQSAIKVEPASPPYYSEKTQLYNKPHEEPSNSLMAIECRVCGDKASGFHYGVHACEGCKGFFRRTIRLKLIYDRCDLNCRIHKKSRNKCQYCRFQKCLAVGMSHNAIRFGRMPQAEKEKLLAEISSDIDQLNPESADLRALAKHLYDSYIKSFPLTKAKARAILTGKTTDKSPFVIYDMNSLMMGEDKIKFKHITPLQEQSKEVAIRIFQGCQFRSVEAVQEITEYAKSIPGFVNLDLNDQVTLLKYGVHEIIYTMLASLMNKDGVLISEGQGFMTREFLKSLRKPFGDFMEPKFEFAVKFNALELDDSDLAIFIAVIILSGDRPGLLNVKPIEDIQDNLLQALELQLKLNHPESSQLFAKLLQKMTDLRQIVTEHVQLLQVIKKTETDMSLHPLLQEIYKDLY
Sequence of UniProt O97775 (O97775 whole entry, looked up): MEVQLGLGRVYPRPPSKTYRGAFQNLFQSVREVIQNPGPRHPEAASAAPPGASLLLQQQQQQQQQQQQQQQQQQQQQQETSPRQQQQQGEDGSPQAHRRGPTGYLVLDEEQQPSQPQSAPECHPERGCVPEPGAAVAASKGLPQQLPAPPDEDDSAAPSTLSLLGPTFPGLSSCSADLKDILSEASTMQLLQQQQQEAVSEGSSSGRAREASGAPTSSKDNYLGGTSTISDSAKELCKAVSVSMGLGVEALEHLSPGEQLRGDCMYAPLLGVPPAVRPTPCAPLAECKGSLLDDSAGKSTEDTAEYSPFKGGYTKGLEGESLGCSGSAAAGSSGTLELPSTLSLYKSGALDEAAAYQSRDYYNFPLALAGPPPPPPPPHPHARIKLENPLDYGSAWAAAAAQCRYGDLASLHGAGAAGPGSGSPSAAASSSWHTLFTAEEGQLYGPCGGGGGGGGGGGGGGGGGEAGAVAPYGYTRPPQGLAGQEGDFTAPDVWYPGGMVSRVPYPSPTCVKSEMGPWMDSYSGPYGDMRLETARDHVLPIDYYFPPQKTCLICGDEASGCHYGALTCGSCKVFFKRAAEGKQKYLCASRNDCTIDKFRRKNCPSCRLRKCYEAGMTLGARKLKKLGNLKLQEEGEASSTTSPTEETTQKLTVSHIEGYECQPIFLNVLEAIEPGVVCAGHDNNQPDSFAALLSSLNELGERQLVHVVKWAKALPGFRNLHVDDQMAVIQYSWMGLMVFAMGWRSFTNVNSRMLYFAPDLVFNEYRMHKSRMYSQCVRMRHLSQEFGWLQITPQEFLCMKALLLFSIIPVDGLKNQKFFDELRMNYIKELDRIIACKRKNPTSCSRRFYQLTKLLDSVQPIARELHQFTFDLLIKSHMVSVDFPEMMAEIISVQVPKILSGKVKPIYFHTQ
Sequence of UniProt P10275 (P10275 whole entry, looked up, the tested form may be a part): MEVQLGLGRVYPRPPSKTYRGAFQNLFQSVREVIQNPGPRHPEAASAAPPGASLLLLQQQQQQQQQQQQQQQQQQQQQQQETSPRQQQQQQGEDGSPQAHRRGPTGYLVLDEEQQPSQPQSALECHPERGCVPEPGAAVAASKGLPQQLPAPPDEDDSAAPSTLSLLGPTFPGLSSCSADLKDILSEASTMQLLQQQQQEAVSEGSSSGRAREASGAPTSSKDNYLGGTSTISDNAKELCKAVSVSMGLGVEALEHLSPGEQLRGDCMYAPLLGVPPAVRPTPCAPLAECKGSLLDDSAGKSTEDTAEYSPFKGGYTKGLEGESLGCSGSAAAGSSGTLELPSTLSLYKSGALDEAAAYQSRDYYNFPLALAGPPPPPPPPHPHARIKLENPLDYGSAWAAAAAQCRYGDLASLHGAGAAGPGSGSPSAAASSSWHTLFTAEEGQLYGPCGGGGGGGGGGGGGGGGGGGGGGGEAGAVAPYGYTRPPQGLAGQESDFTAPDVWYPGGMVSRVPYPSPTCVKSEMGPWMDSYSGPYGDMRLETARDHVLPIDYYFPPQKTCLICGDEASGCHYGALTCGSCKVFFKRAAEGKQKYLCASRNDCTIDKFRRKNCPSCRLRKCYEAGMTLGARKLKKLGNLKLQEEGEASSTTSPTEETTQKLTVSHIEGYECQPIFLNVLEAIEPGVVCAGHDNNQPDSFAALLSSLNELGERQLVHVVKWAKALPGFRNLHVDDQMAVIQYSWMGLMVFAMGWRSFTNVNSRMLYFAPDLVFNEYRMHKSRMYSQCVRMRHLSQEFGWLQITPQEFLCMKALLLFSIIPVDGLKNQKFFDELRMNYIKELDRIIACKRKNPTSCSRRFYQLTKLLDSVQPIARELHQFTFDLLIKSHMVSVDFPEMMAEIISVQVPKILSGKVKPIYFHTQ
Sequence of UniProt P10828 (P10828 whole entry, looked up, the tested form may be a part): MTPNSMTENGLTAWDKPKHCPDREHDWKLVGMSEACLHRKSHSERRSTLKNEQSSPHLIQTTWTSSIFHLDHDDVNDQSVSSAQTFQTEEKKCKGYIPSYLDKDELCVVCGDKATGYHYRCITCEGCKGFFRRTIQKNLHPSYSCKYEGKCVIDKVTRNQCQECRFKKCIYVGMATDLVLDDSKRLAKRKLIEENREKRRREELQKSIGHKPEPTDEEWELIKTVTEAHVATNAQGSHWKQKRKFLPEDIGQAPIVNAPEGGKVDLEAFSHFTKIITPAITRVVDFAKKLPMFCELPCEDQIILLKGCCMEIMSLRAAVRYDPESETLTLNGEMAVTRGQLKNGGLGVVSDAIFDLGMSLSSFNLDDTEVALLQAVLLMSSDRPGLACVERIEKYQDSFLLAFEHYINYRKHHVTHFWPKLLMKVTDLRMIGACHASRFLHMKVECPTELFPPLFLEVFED

As for `CC(C)(c1ccc(O)cc1)c1ccc(O)cc1`, the concentration at half-maximal activity (AC50) in [1] is active: 14.5 µM; in [2], active: 48.9 µM; in assay [7], active: 1.76 µM; in assay [8], active: 19.9 µM; in assay [10], active: 34.7 µM; in assay [16], active: 10 µM. The result in assay [2], in assay [3], in assay [4], in assay [5], in [6] and in [9] was inactive. For the same molecule, the result in [11], in [12], in assay [13], in assay [14] and in assay [15] was inactive.

As for `CCN=C1C=CC(=C(c2ccc(N(CC)CC)cc2)c2ccc(N(CC)CC)cc2)c2ccccc21`, the outcome in [17] and in assay [18] was inactive.
